Laboratory results published in PubChem BioAssay (NCATS).
Values joined by “and” are separate entries in the source; they are usually repeats but may differ in a detail not shown here. Equal entries are not always repeated. The shares of active, inactive and inconclusive entries below differ from those in the screen. Entries that show only a call come without a potency. For some assays here: Potencies of inconclusive entries are doubtful fits and often do not repeat. Active and inactive are the calls of the source. Calls follow the shape of the dose curve; as a rule, active = well fitted curve in the direction sought with a large enough effect; inconclusive = small, poorly fitted or top-dose-only effect, or another doubt; inactive = no such curve, though single readings can be large; an effect the other way counts as inactive or inconclusive.

Legend:
[1] = Viability qHTS for spleen associated tyrosine kinase inhibitor (SYKi) naive MV4-11 cells (AID 1963823); details: MV4-11 AML viability, CellTiter-Glo luminescence, 72 h; viability (% of control): at 45 µM (top of the series); also: nearly all actives have a fitted effect of over 40% in size
Outline: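 CellTiter-Glo luminescence, 10 min room-temperature incubation, gave viability. Cells: naive MV4-11 (500/well), treated 72 hr at 37 C, 5% CO2.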

[2] = Viability qHTS for spleen associated tyrosine kinase inhibitor (SYKi) drug resistant MV4-11 cells (AID 1963824); details: SYKi-resistant MV4-11 viability, CellTiter-Glo, 72 h; series mostly up to 45 µM; also: nearly all actives have a fitted effect of over 35% in size
Outline: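 SYK inhibitor-resistant MV4-11 AML cells, 500 per well, added to predispensed compounds and incubated 72 hr at 37 C, 5% CO2. Viability measured by CellTiter-Glo luminescence after 10 min at room temperature.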

[3] = Quantitative highthroughput screen to assess conditional lethalithy of NOMO1 cells grown in RPMI1640 with untreated serum (RPMI+s) (AID 1963876); details: NOMO1 AML cells in RPMI+serum, CellTiter-Glo viability, 48 h; viability: at 45.8 µM (top of the series); also: nearly all actives have a fitted effect of over 35% in size
Outline: (§1)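 Each medium arm—HPLM with 10% dialyzed FBS, or RPMI1640 with 5 mM glucose and 10% untreated or dialyzed FBS—was screened against an 11-point, 3-fold compound titration for 48 h at 37 °C, with CellTiter-Glo luminescence as endpoint.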

[4] = Quantitative highthroughput screen to assess conditional lethalithy of NOMO1 cells grown in Human Plasma-Like Medium with dialyzed fetal bovine serum (HPLM+ds) (AID 1963878); details: NOMO1 AML cells in HPLM+ds, CellTiter-Glo viability, 48 h; viability: at 45.8 µM (top of the series); also: nearly all actives have a fitted effect of over 35% in size
Outline: as §1

[5] = Quantitative highthroughput screen to assess conditional lethalithy of P12 Ichikawa cells grown in RPMI1640 with untreated serum (RPMI+s) (AID 1963881); details: ATP luminescence, 48 h; Potency: viability; series mostly up to 45.8 µM; also: nearly all actives have a fitted effect of over 35% in size
Outline: as §1

[6] = Quantitative highthroughput screen to assess conditional lethalithy of SEM cells grown in Human Plasma-Like Medium with dialyzed fetal bovine serum (HPLM+ds) (AID 1963882); details: SEM B-ALL cells in HPLM+ds, CellTiter-Glo viability, 48 h; series mostly up to 45.8 µM; also: nearly all actives have a fitted effect of over 35% in size
Outline: as §1

[7] = Quantitative highthroughput screen to assess conditional lethalithy of SEM cells grown in RPMI1640 with dialyzed fetal bovine serum (RPMI+ds) (AID 1963884); details: SEM B-ALL cells, RPMI+dialyzed FBS, CellTiter-Glo viability, 48 h; viability: at 45.8 µM (top of the series); also: nearly all actives have a fitted effect of over 35% in size
Outline: as §1

[8] = Quantitative highthroughput screen to assess conditional lethalithy of P12 Ichikawa cells grown in Human Plasma-Like Medium with dialyzed fetal bovine serum (HPLM+ds) (AID 1963879); details: ATP luminescence, 48 h; Potency: viability; series mostly up to 45.8 µM; also: nearly all actives have a fitted effect of over 35% in size
Outline: as §1

[9] = Quantitative highthroughput screen to assess conditional lethalithy of P12 Ichikawa cells grown in RPMI1640 with dialyzed fetal bovine serum (RPMI+ds) (AID 1963880); details: ATP luminescence, 48 h; Potency: P12-Ichikawa viability; series mostly up to 45.8 µM; also: nearly all actives have a fitted effect of over 35% in size
Outline: as §1

[10] = Quantitative highthroughput screen to assess conditional lethalithy of SEM cells grown in RPMI1640 with unreated serum (RPMI+s) (AID 1963883); details: SEM B-ALL cells, CellTiter-Glo viability, 48 h; viability: at 45.8 µM (top of the series); also: nearly all actives have a fitted effect of over 35% in size
Outline: as §1

[11] = Cellular viability qHTS for adrenocortical cancer (ACC) cell line SW-13 (AID 1963989); details: SW-13 ACC cells viability, CellTiter-Glo, 48 h; activity (max response): stronger effect = lower value; also: nearly all actives have a fitted effect of over 65% in size;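 as to activity (max response): cells grown in serum-free medium with ITS supplement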
Outline: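 Viability was read as CellTiter-Glo luminescence after 48 h compound treatment (up to 46 uM final) of SW-13 cells grown serum-free; titration curves were fit with a four-parameter logistic model to give IC50 and efficacy.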

[12] = Cellular viability qHTS for adrenocortical cancer (ACC) cell line NCI-H295R (AID 1963990); details: CellTiter-Glo ATP luminescence, 48 h; activity change, negative = viability loss: at 46.1 µM (top of the series); also: nearly all actives have a fitted effect of over 60% in size
Outline: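 CellTiter-Glo ATP luminescence, read 48 h after compound addition, measured viability of NCI-H295R adrenocortical cells grown serum-free with ITS. Final concentrations spanned up to 46 uM. Data normalized to DMSO and doxorubicin, fitted for IC50 and maximal response.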
Potency is read from the fitted curve at half-maximal effect; tags tell the direction and shape of the fitted curve.

SMILES	Potency [1]	Potency [2]	Potency [3]	Potency [4]	Potency [5]	Potency [6]	Potency [7]	Potency [8]	Potency [9]	Potency [10]	activity (max response) [11]	Potency [12]	Potency [11]
C[C@]12C=CC(=O)C=C1CC[C@@H]1[C@@H]2C(=O)C[C@@]2(C)[C@H]1CC[C@]2(O)C(=O)CO	inconclusive: 18.8 µM [cytotoxic, partial curve, poor fit] and inactive	inactive	inconclusive: 12.9 µM [cytotoxic, single point]	inactive	inactive	inactive	inactive						
CC(CCc1ccc(O)cc1)NCCc1ccc(O)c(O)c1 (centres undefined)	inconclusive: 26.6 µM [cytotoxic, single point]	inconclusive: 16.8 µM [cytotoxic, partial curve, poor fit]	inactive		inconclusive: 26.4 µM [cytotoxic, single point]	active: 20.9 µM	active: 20.9 µM	inconclusive: 33.2 µM [cytotoxic, single point]	inconclusive: 37.2 µM [cytotoxic, single point]				
CCCCC(F)(F)[C@@]1(O)CC[C@H]2[C@H](CC(=O)[C@@H]2CCCCCCC(=O)O)O1	inconclusive: 29.5 nM [cytotoxic, full curve] and inconclusive: 36.6 nM [cytotoxic, full curve]	inconclusive: 0.517 µM [cytotoxic, partial curve]	inactive	inconclusive: 16.6 µM [cytotoxic, partial curve, poor fit]			inactive			inactive			
OCc1ccc(-c2ccc(-c3ccc(CO)s3)o2)s1	inconclusive: 100 nM [cytotoxic, full curve, poor fit] and active: 1.18 µM	inconclusive: 28.2 nM [cytotoxic, full curve] and active: 833 nM	inactive	inactive			inactive			inactive	inactive: -9.77%	active: 28.2 µM	
COc1ccc(C2Sc3ccccc3N(CCN(C)C)C(=O)C2OC(C)=O)cc1 (centres undefined)	inactive	inconclusive: 0.2 µM [cytotoxic, partial curve, poor fit]	inactive				inactive	inactive	inactive	inactive			
CC(C)(C)COc1ccc(-n2cc(C(=O)O)cn2)cc1C#N	inconclusive: 9.34 µM [cytotoxic, full curve, poor fit]	inconclusive: 10.5 µM [cytotoxic, full curve, poor fit]	inactive			inactive		inactive		inactive			
CCOC(=O)Nc1ccc(NCc2ccc(F)cc2)nc1N	inconclusive: 26.6 µM [cytotoxic, single point] and active: 14.8 µM	inconclusive: 33.5 µM [cytotoxic, single point]	inactive	inactive						inconclusive: 37.2 µM [cytotoxic, single point]	inactive: -9.42%		inconclusive: 35.5 µM [cytotoxic, partial curve, poor fit]
O=c1oc2cc(O)ccc2s1	inconclusive: 23.5 µM [cytotoxic, partial curve]	inconclusive: 23.5 µM [cytotoxic, partial curve]	inactive			inconclusive: 37.2 µM [cytotoxic, single point]	inconclusive: 23.5 µM [cytotoxic, single point]		inactive	inconclusive: 20.9 µM [cytotoxic, partial curve]		inactive	inconclusive: 25.1 µM [cytotoxic, partial curve, poor fit]
CC(C)Cc1ccc(C(C)C(=O)O)cc1 (centres undefined)	inactive	inactive	inactive	inactive		inconclusive: 18.2 µM [cytotoxic, single point]	inconclusive: 12.9 µM [cytotoxic, partial curve]						
Nc1ncnc2nc(-c3ccc(N4CCOCC4)nc3)cc(-c3cccc(Br)c3)c12	inconclusive: 2.31 µM [cytotoxic, full curve] and active: 4.68 µM	inconclusive: 2.59 µM [cytotoxic, full curve]	inactive						inactive				
O=P(O)(O)C(O)(Cc1cccnc1)P(=O)(O)O	inconclusive: 0.944 µM [rising, full curve, poor fit]	inactive	inactive			inactive	inconclusive: 0.0418 µM [rising, full curve, poor fit]			inconclusive: 0.0469 µM [rising, full curve, poor fit]			
